Test results as given in PubChem BioAssay AID504333 (National Center for Advancing Translational Sciences (NCATS), 2011).
Several values for one entry are separate records, joined by “and”; a condition that tells them apart may be missing. Equal entries are not always repeated. Hit rate of the full screen: of about 360,000 compounds, about 16,000 (4.4%) were called active. This list was built around the results that the source calls inconclusive (neither active nor inactive); the mix of calls is not that of the screen. Calls come from the whole dose curve; as a rule, active = well fitted inhibition curve with a large enough effect; inconclusive = small, poorly fitted or top-dose-only effect; inactive = no such curve, though single readings can be large or run the other way. Potencies beside an inconclusive call are fits to weak or partial responses and may not hold up.

biological target: Bromodomain adjacent to zinc finger domain protein 2B (Homo sapiens) (UniProt Q9UIF8); test: qHTS Assay for Inhibitors of BAZ2B; details: AlphaScreen BAZ2B-H3K14Ac peptide displacement; activity change, negative = inhibition: at 114 µM (top of the series); note: nearly all actives have a fitted effect of over 60% in size
Chain of UniProt Q9UIF8 (Q9UIF8 whole entry, looked up, the tested form may be a part): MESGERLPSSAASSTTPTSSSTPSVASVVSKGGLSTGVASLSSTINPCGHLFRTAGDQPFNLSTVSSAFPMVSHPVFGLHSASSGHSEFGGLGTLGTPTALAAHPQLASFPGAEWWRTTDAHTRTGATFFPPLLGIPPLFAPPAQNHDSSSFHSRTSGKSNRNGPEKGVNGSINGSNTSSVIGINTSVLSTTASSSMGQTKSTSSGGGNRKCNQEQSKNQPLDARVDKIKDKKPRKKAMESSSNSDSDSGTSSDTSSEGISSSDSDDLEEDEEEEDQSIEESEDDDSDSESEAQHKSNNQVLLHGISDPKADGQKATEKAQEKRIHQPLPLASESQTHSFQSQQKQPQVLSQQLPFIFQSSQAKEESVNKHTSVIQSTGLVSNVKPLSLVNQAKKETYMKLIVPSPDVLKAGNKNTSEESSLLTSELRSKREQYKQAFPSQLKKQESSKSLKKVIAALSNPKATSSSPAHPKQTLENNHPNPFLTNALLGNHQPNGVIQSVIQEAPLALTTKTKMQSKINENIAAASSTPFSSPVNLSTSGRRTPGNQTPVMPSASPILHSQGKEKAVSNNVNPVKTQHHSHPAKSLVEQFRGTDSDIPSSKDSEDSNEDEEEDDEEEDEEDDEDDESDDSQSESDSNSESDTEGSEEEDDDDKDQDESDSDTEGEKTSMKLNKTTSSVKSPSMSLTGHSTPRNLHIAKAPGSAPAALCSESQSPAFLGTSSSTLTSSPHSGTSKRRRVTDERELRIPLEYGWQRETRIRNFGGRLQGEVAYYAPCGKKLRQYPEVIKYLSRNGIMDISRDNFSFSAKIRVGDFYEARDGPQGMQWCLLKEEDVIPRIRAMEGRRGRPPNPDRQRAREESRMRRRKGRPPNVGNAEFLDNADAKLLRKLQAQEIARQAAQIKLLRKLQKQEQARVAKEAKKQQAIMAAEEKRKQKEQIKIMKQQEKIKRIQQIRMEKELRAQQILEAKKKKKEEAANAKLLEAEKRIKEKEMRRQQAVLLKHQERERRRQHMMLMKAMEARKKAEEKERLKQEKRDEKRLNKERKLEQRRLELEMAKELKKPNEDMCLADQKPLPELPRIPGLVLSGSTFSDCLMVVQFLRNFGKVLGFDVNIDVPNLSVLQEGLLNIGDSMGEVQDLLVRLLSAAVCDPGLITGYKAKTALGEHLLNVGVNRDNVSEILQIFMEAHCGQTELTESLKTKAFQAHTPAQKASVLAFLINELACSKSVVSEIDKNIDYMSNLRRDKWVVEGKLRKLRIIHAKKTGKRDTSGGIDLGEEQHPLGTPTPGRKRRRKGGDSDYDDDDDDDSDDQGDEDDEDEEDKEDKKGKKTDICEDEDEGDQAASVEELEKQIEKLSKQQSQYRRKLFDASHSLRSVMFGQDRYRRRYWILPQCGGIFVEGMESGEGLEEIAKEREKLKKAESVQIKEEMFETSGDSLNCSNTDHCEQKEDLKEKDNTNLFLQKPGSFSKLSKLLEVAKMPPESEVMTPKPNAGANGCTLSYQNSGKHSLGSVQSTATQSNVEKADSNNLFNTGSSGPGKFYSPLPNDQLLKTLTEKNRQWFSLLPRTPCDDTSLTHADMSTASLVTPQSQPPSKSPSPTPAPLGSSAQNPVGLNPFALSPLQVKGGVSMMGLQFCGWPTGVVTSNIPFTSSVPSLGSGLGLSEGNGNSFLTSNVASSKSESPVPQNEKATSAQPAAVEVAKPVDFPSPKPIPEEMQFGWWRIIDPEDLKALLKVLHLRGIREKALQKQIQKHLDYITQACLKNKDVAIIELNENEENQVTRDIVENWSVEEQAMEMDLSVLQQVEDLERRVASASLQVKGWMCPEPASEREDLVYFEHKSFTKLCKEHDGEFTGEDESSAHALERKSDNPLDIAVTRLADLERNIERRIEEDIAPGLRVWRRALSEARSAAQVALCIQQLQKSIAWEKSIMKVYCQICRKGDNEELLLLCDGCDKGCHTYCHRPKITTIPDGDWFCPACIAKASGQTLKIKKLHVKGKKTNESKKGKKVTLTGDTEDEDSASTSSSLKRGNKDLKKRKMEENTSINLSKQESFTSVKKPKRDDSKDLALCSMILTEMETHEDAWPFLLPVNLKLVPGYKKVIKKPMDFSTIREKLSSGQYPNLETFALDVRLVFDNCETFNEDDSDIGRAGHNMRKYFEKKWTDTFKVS
Procedure, shortened: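 Inhibition is scored as reduced AlphaScreen emission. The BAZ2B/b-H3(5-23)K14Ac complex (50 nM each) in PBS pH 7.4, 0.01% Tween-20 meets compound (up to 110 uM) for 30 min at RT before bead addition.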
% is set by controls: 0 for no effect and ±100 for the full control effect; potency is the fitted concentration of half-maximal effect; tags give direction and shape of the fitted curve.

Row | SMILES | activity change, negative = inhibition | Potency
1 | CCNC(=O)C1CCCN1S(=O)(=O)c1ccc(OC)cc1 (stereo not given) | inactive: 8.06% | 
2 | Cc1ccc(-n2c(SCCN)nnc2-c2cccc(C)c2)cc1 |  | active: 79.4 µM
3 | O=C(NCCCN1CCOCC1)c1ccccc1N1C(=O)[C@@H]2Cc3c([nH]c4ccccc34)C(c3cccc(Cl)c3)N2C1=O (stereo not given in full) |  | inconclusive: 44.7 µM [inhibitor, partial curve]
4 | CN(CC(=O)Nc1ccc(N2CCOCC2)cc1)C(=O)CSc1ccccc1F | inactive: 1.83% | 
5 | CC1CN(CCCCOc2cccc(Oc3ccccc3)c2)CC(C)O1 (stereo not given) |  | active: 35.5 µM
6 | Cc1ccc2nc(NC(=O)CSc3nnc(C)c(=O)n3N)sc2c1 | inactive: -2.44% | 
7 | COc1ccccc1NC(=O)CSc1nnc(CC(=O)Nc2cccc(C(F)(F)F)c2)n1C |  | inconclusive: 35.5 µM [inhibitor, single point]
8 | COc1ccc(N2CCN(CC(O)COCCOc3ccc(Br)cc3)CC2)cc1 (stereo not given) |  | active: 44.7 µM
9 | C=CCN(CC=C)CCOc1ccccc1[N+](=O)[O-] |  | active: 39.8 µM
10 | COc1ccc(N2CCN(C(=O)c3ccc(CS(=O)c4cccc(C)c4)o3)CC2)cc1 (stereo not given) |  | inconclusive: 70.8 µM [inhibitor, single point] and inconclusive: 70.8 µM [inhibitor, partial curve]
11 | COc1ccc(Cl)cc1NC(=O)c1oc2ccc(S(=O)(=O)N3CCCCC3)cc2c1C | inactive: -0.166% | 
12 | O=c1[nH]n2c(=O)c3c([nH]c2c1N=Nc1ccccc1)CCC3 |  | active: 39.8 µM
13 | Cc1ccc(CCNS(=O)(=O)c2cc3c(cc2C)NC(=O)CO3)cc1 | inactive: 4.65% | 
14 | O=C(c1ccco1)N1CCN(C(=O)c2cc3c(s2)-c2ccccc2OC3)CC1 |  | inconclusive: 89.1 µM [inhibitor, single point]
15 | COc1ccc(CN2CCN(C(=O)CC(C)C)CC2)cc1Br |  | inconclusive: 89.1 µM [inhibitor, single point]
16 | Cc1cccc(OCC(=O)N2CCC(N3CCCCCC3)CC2)c1 |  | inconclusive: 89.1 µM [inhibitor, single point]
17 | CC1(C)CC(NC(=O)c2ccncc2)CC(C)(C)N1O |  | inconclusive: 79.4 µM [inhibitor, single point]
18 | Cn1cccc1Cc1nnc(SCC(=O)NCc2ccc3c(c2)OCO3)n1CCc1ccccc1 |  | inconclusive: 44.7 µM [inhibitor, partial curve]
19 | COc1cc2c(cc1OC)CN(c1ccc([N+](=O)[O-])cc1Cl)CC2 |  | inconclusive: 11.2 µM [inhibitor, full curve]
20 | O=C(Cc1ccccc1)c1c[nH]c(C(=O)NCc2ccncc2)c1 |  | inconclusive: 89.1 µM [inhibitor, single point]
